According to PubChem BioAssay AID2451 (National Center for Advancing Translational Sciences (NCATS), 2010):
Several values for one entry are separate records, joined by “and”; a condition that tells them apart may be missing. Equal values may be shown once. The campaign covered roughly 290,000 compounds. About 2,100 (0.72%) were called active. The shares of active, inactive and inconclusive entries below differ from those in the screen. Calls come from the whole dose curve; as a rule, active = well fitted inhibition curve with a large enough effect; inconclusive = small, poorly fitted or top-dose-only effect, or effect the other way; inactive = flat fitted curve, though single readings scatter. A potency beside an inconclusive call is a rough fit, not a confirmed value.

Target: Fructose-bisphosphate aldolase (Giardia intestinalis (strain ATCC 50803 / WB clone C6)) (UniProt A8B2U2)
Assay: qHTS Assay for Inhibitors of Fructose-1,6-bisphosphate Aldolase from Giardia Lamblia; note: nearly all actives have a fitted effect of over 55% in size
Conditions: purified Giardia FBPA; activity, negative = inhibition: at 59.6 µM (top of the series) unless noted
In short: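 40 nM FBPA preincubated 10 min at RT with compound (up to 57.5 uM final), then substrate plus GAPDH/TPI/NAD/arsenate coupling and diaphorase/resazurin added. Fluorescence read after 20 min at RT, 525/598 nm.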
% is set by controls: 0 for no effect and ±100 for the full control effect; potency is the fitted concentration of half-maximal effect; tags give direction and shape of the fitted curve.

Sequence of UniProt A8B2U2 (A8B2U2 whole entry, looked up): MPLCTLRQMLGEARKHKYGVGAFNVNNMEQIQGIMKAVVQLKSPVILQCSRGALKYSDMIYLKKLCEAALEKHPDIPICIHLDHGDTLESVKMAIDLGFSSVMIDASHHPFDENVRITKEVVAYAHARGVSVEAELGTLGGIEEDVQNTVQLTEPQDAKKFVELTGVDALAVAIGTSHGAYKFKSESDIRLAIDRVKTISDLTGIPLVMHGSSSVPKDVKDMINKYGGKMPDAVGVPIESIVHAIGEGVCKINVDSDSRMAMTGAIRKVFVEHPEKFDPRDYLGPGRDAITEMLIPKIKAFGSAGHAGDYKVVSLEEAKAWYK

Structure (SMILES)	Potency	activity, negative = inhibition
CCOC(=O)C1CCN(c2nc3ccccc3nc2C(C#N)C(=O)NCCc2ccccc2)CC1 (centres undefined)	inconclusive: 19.9 µM [inhibitor, single point]	–
COc1ccc(OCC(=O)NC(=S)N2CCCc3ccccc32)cc1	inconclusive: 14.1 µM [inhibitor, partial curve]	–
O=C(O)c1ccc(/C=C2\SC(=S)N(NC(=O)c3ccccc3)C2=O)cc1	inconclusive: 22.4 µM [inhibitor, single point]	–
COc1ccc(CN2CCc3ccccc3C2)c(OC)c1	inconclusive: 17.7 µM [inhibitor, partial curve]	–
CC(C)Cc1nc(N2CCCCC2)c(C#N)c2c1CCC2	–	inactive: -17%
COc1cc(CN2CCN(C(=O)CC(C)C)CC2)cc(OC)c1O	active: 15.8 µM	–
NC1=NN=C(N2N=C(c3ccc(Br)cc3)CC2(O)C(F)(F)F)n2ncnc2C1 (centres undefined)	inconclusive: 1 µM [inhibitor, full curve]	–
COc1ccc(CN2CN(S(=O)(=O)c3cccs3)c3nc4ccccc4nc32)cc1	inconclusive: 15.8 µM [inhibitor, single point]	–
CC(=O)NC1C(=O)SC1(C)C (centres undefined)	active: 15.8 µM	–
S=C(NCCN1CCOCC1)N1CCN(c2cccc(Cl)c2)CC1	inconclusive: 28.2 µM [inhibitor, single point]	–
CCc1nc(C)ccc1OCC(=O)NCCCN(C)C	active: 12.6 µM	–
N#C/C(=C1\C(=O)Nc2c(Cl)cc(Cl)cc21)c1nnc2n1CCCCC2	inconclusive: 3.15 µM [inhibitor, full curve]	–
COc1ccc(CCN(C)Cc2cccc3ccccc23)cc1OC	inconclusive: 28.2 µM [inhibitor, single point]	–
CCN(Cc1ccccc1)c1ccc(/C=N/NC(=O)c2cccc(S(=O)(=O)N3CCOCC3)c2)cc1	–	inactive: 1.29%
Cc1cc(C(=O)CSc2nnc(NCc3ccccc3)s2)c(C)n1C	–	inactive: 2.55%
O=C(Nc1sc2c(c1C(=O)O)CCCC2)c1ccc(F)cc1	inconclusive: 28.2 µM [inhibitor, partial curve]	–
CCCCC1=CC2=C(c3ccco3)C(=O)C(C)(OC(=O)c3ccc(OC)cc3)C(=O)C2=CN1Cc1ccc(OC)cc1 (centres undefined)	inconclusive: 7.06 µM [inhibitor, partial curve] and inconclusive: 2.23 µM [inhibitor, partial curve]	–
COc1cccc(C2C(C#N)=C(N)Oc3cc(C)n(Cc4ccco4)c(=O)c32)c1 (centres undefined)	inconclusive: 14.1 µM [inhibitor, partial curve]	–
CCOC(=O)N1CCN(CC(=O)Nc2nc3ccccc3s2)CC1	inconclusive: 7.08 µM [inhibitor, partial curve]	–
CCc1ccc(C2C(C#N)=C(N)C(C#N)(C#N)C3=CCC(C(C)(C)C)CC32)cc1 (centres undefined)	inconclusive: 17.7 µM [inhibitor, single point]	–
COc1ccc2c(c1)nc(SCC(=O)c1ccc(Br)s1)n2C	inconclusive: 19.9 µM [inhibitor, single point]	–
O=C(Nc1cccc(C(=O)O)c1)/C(=C/c1ccc2c(c1)OCO2)NC(=O)c1cccc(Br)c1	inconclusive: 17.7 µM [activator, single point]	–

Structure (SMILES)	Potency	activity, negative = inhibition
Cc1cccc(OCc2nn[nH]n2)c1C	active: 14.1 µM	–
CCCCC(=O)NC(c1ccc(N(CC)CC)cc1)c1ccc2cccnc2c1O (centres undefined)	inconclusive: 31.6 µM [activator, partial curve]	–
CCC(C)NC(=O)C1CCC(CNS(=O)(=O)c2ccccc2)CC1 (centres undefined)	–	inactive: 9.94%
COc1cc(-c2cccs2)cc(=O)c2c(C)oc(C)c12	inconclusive: 15.8 µM [inhibitor, single point]	–
Nc1ccc(C(=O)NCCCCCCNC(=O)c2ccc(N)cc2)cc1	–	inactive: 4.54%
COc1ccc(C(=O)Nc2ccccc2C(=O)N/N=C/c2ccccn2)cc1OC	inconclusive: 4.46 µM [inhibitor, partial curve]	–
O=C(c1cccc(Cl)c1)N1CCN(Cc2ccccc2F)CC1	inconclusive: 25.1 µM [inhibitor, partial curve]	–
COc1cc(/C=N/NC(=O)c2ccncc2)ccc1OCCN1CCCCC1	–	inactive: 4.02%
Cc1cc(C(=O)C(=O)O)c(C)n1-c1ccc(Cl)c(Cl)c1	inconclusive: 17.7 µM [activator, partial curve]	–
CCOC(=O)c1c(NS(=O)(=O)c2ccccc2)n(CCCOC)c2nc3ccccc3nc12	inconclusive: 1.26 µM [inhibitor, full curve]	–
O=C(Nc1nnc(-c2ccccc2Cl)o1)c1nc2ccccc2s1	inconclusive: 31.5 µM [activator, single point]	–
COc1ccc(-c2ccc(CCC(=O)O)n2NC(=O)c2ccc(O)cc2)cc1	–	inactive: 9.31%
COC(=O)CCNc1ccc2c(c1)OCCO2	inconclusive: 19.9 µM [inhibitor, partial curve]	–
O=C(Nc1cc(S(=O)(=O)N2CCOCC2)ccc1O)c1ccc(NS(=O)(=O)c2ccc(Cl)s2)cc1	–	inactive: 28.7%
O=C1NC(c2ccccc2)=C(c2ccc3ccccc3n2)C(c2ccncc2)N1 (centres undefined)	–	inactive: 2.81%
CCCSc1nc2c(cnn2-c2ccccc2)c(=O)[nH]1	–	inactive: 3.96%
CC(=O)N1CCN(c2nc(N)c(C#N)c(CC#N)c2C#N)CC1	inconclusive: 15.8 µM [inhibitor, partial curve]	–
CNC(=O)N(O)C1N(/N=C/c2ccc(N(C)C)cc2)C(=S)SC1(C)C (centres undefined)	inconclusive: 39.8 µM [inhibitor, single point]	–
Fc1ccc(-n2cc(-c3ccccc3)c3c(=S)nc[nH]c32)cc1	inconclusive: 31.6 µM [activator, single point]	–
CC1CCN(CCOc2ccc(C(=O)c3ccccc3)cc2)CC1	inconclusive: 15.8 µM [inhibitor, partial curve]	–
Cc1ccc(C(=O)Nc2nccc(-c3cccs3)n2)cc1	–	inactive: -11.5%
CCOc1ccccc1N1CCN(C2=C(NS(=O)(=O)c3cccs3)C(=O)c3ccccc3C2=O)CC1	inconclusive: 9.98 µM [inhibitor, partial curve]	–
